Results on 57 compounds are retold here after PMC4336329 (PLoS ONE, 2015).

In all, about 310,000 compounds went through this assay and about 2,200 (0.71%) showed an effect of 50% or more. Effects have a minus sign here. The list shows a part of the results.

Chain of human ether-à-go-go-related gene (hERG) potassium channel (Q12809 whole entry, looked up): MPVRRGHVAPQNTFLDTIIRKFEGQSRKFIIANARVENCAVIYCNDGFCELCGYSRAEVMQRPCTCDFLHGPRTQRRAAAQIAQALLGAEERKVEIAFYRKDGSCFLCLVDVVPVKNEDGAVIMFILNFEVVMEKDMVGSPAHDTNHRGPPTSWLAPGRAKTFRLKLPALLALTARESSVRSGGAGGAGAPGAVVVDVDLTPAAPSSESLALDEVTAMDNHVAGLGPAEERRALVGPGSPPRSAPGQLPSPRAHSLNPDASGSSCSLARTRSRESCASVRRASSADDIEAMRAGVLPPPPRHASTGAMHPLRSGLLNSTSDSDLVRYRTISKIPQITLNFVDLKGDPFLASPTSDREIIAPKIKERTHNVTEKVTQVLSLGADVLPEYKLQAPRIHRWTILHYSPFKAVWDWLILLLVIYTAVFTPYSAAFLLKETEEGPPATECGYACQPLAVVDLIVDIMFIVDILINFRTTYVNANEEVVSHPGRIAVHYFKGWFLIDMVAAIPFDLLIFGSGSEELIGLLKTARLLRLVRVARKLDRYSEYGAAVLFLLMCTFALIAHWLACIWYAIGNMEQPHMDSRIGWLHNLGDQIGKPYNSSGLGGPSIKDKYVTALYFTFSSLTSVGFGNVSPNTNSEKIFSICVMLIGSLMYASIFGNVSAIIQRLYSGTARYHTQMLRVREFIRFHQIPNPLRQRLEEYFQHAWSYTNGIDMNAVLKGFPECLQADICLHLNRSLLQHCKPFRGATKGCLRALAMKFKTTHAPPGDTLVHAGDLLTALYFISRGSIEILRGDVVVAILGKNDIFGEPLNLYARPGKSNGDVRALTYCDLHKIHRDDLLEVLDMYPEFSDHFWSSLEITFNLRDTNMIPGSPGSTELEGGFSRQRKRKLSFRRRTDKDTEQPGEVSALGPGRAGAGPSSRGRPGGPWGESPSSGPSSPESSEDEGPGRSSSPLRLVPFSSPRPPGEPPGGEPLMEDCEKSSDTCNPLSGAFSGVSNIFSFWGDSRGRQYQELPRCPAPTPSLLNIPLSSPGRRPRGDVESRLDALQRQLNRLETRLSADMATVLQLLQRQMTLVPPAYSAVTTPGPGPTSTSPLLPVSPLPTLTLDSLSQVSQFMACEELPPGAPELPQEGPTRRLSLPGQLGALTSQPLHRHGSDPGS

This experiment addresses human ether-à-go-go-related gene (hERG) potassium channel (human, UniProt Q12809). In words: primary screen, population patch clamp on CHO cells stably expressing hERG.
As to `COc1ccc2c(CC(=O)OCC(=O)Nc3ccc(C)cc3)coc2c1`, the “hERG current change (%, negative = inhibition) at 1uM” value is on record as 0.61%.
`COCCCNC(=O)c1ccccc1Oc1ccccc1`: the “hERG current change (%, negative = inhibition) at 1uM” value is on record as 3.11%.
The value for `COC(=O)c1ccc(NC(=O)CCS(=O)(=O)c2ccc(Br)cc2)cc1` was 14.2%; that for `CCC(C)C(=O)Nc1nnc(SCC(=O)NC(C)(C)C)s1` (stereo not drawn) was 22.6%.
Under `O=C(NCc1ccc(F)cc1)C(=O)NCC1OCCN1C(=O)c1cccs1` (stereo not drawn) stands 3.51%.
Consider `Cc1ccc(C(=O)/C=C/C(=O)c2ccc(C)cc2)cc1`, for which the “hERG current change (%, negative = inhibition) at 1uM” value turned out to be 7.16%.
Under `CCOc1ccc(CCNC(=O)c2ccc(C)c(N3CCCC3=O)c2)cc1OCC` stands 12.4%.
Under `CCCN(CC(=O)Nc1ccccc1C)C(=O)c1ccc(S(=O)(=O)N2CCCCC2)cc1` stands 8.84%.
The value for `COc1cc(C(=O)NCC(=O)NCCN2C(=O)S/C(=C\c3ccccc3Cl)C2=O)cc(OC)c1OC` was 7.22%; that for `COC(=O)c1ccccc1NC(NC(=O)c1ccco1)C(=O)c1ccccc1` (stereo not drawn) was -3.73%; that for `Cc1csc(NC(=O)CCN2C(=O)c3ccccc3S2(=O)=O)n1` was 1.86%.
For `COc1ccc(-n2nnnc2-c2cccnc2)cc1`, the “hERG current change (%, negative = inhibition) at 1uM” value is on record as 15.5%.
The value for `CN(C)S(=O)(=O)c1ccc(Cl)c(NC(=O)COC(=O)C2CSC3(C)CCC(=O)N23)c1` (stereo not drawn) was 7.9%; that for `COc1nc(Oc2ccc(=O)[nH]n2)nc(N2CCOCC2)n1` was 2.16%; that for `Cc1nc(-c2ccccc2)nc(Cl)c1Cl` was -10.3%.
For the compound `CC(C)(C)OC(=O)N[C@H](C(=O)OC(C)(C)C)c1ccc(Br)cc1`, the “hERG current change (%, negative = inhibition) at 1uM” value came to 8.95%.
Under `COc1ccc(CCNc2nc(Cl)nc(NC(C)(C)CO)n2)cc1OC` stands 17.5%.
Under `COc1ccc(C2C(C#N)=C(N)OC3=C2C(=O)CC(C)(C)C3)c([N+](=O)[O-])c1OC` (stereo not drawn) stands 2.91%; under `Cc1cc(C)nc(NN2C(=O)/C(=C/c3ccccc3)SC2=S)n1`, 7.8%; under `CN1CCN(c2ccc(NC(=O)C(C)(c3ccccc3)c3ccccc3)cc2)CC1`, -15.9%.
Turning to `COc1cccc(CC(=O)Nc2nc(-c3ccc(OC)c(OC)c3)cs2)c1`, the “hERG current change (%, negative = inhibition) at 1uM” value is listed as 12.6%.
Under `CC(=O)c1ccc(NC(=O)c2ccc(CNc3c(N4CCCC4)c(=O)c3=O)cc2)cc1` stands 11.9%.
Under `Cc1cccc(NC(=S)Nc2c(C)n(C)n(-c3ccccc3)c2=O)c1C` stands -2.46%; under `CC(Sc1nc(N)cc(=O)[nH]1)C(=O)Nc1sc2c(c1C#N)CCCC2` (stereo not drawn), 17.7%; under `CCC1CCCCN1CCCn1c(=S)[nH]c2ccccc2c1=O` (stereo not drawn), -35.5%.
Under `CCNc1nc(NC(C)(C)C)nc(SC(C(C)=O)C(C)=O)n1` stands 9.66%; under `CS(=O)(=O)c1ccc2nc(NC(=O)c3ccc(=O)[nH]c3)sc2c1`, 9.55%.
For the compound `O=C(Nc1ccc(NC(=O)c2ccco2)nc1)c1cccc(F)c1`, the “hERG current change (%, negative = inhibition) at 1uM” value came to 16.7%.
With `Nc1nc(CSc2ccccc2)nc(N2CCCCC2)n1`, the “hERG current change (%, negative = inhibition) at 1uM” value is recorded as 5.51%.
Under `O=C(NC1CCCc2ccccc21)c1cccc(S(=O)(=O)N2CCN(c3ccccc3)CC2)c1` (stereo not drawn) stands -1.36%; under `CSc1ccc(C(=O)C2CCCN(C(=O)c3ccc4c(c3)OCO4)C2)cc1` (stereo not drawn), -1.19%.
Under `CC(C)Cn1c(N)c(C(=O)CSc2ncccn2)c(=O)n(C)c1=O` stands 12.8%.
Under `COc1ccc(NC(=O)C(c2cc3c(cc2[N+](=O)[O-])OCO3)N(C)c2ccccc2)cc1` (stereo not drawn) stands 5.11%; under `Nc1c(Br)c(=O)[nH]c(=O)n1-c1ccc(F)cc1`, 18.5%.
Regarding `COC(=O)C(NC(C)=O)(Nc1nc2ccc(C)cc2s1)C(F)(F)F` (stereo not drawn), the “hERG current change (%, negative = inhibition) at 1uM” value is reported as 7.94%.
The value for `CCOC(=O)c1ccc(NC(C)=O)c([N+](=O)[O-])c1` was 11.3%; that for `O=C(NCc1ccccc1)c1n[nH]nc1-c1ccccc1O` was 1.63%; that for `O=C(NCc1ccccc1)C(c1cccnc1)N(C(=O)c1csnn1)c1ccccc1` (stereo not drawn) was 10.7%.
`COC(=O)c1ccccc1NC(=O)N1CCN(C/C=C/c2ccccc2)CC1`: the “hERG current change (%, negative = inhibition) at 1uM” value is -0.0462%.
The value for `O=C(COC(=O)c1cc([N+](=O)[O-])ccc1N1CCOCC1)NCc1ccc(F)cc1` was -19.6%; that for `Nc1nc2ccc(C(=O)NCCOC(=O)C3CCCCC3)cc2s1` was 8.34%.
The value for `COc1ccccc1N1CCN(C(=O)c2cc(C(=O)N3CCN(c4ccccc4OC)CC3)cc([N+](=O)[O-])c2)CC1` was 15%.
Under `O=C(COc1ccc(-c2nnco2)cc1)Nc1c(F)cccc1F` stands 14.1%.
As for `CN(CC(=O)Nc1ccc(F)cc1)C(=O)COc1ncnc2ccccc12`, the “hERG current change (%, negative = inhibition) at 1uM” value is reported as -4.57%.
As to `OCCn1c(Cl)nc2ccccc21`, the “hERG current change (%, negative = inhibition) at 1uM” value amounted to 12.8%.
Under `Cc1c(C#N)c2ccccc2n1CCOc1ccccc1F` stands 6.79%; under `COC(=O)C[C@H]1c2cc(C(F)(F)F)ccc2S(=O)(=O)N1C1CCCC1`, -12%.
Under `COc1ccc(CCNC(=O)C2CCCN2S(=O)(=O)c2ccc(F)cc2)cc1OC` (stereo not drawn) stands 7.36%; under `CCOC(=O)CNC(=O)c1ccc(Cl)s1`, 3.34%; under `CSc1ccc(CCNC(=O)Cn2ncc3c([nH]c4ccccc43)c2=O)cc1`, 17.1%.
Under `c1cc2c(cc1CCNC1C3CC4CC(C3)CC1C4)OCO2` (stereo not drawn) stands 5.84%.
In the case of `O=C(O)CCc1nc(-c2ccccc2)c(-c2ccccc2)o1`, the “hERG current change (%, negative = inhibition) at 1uM” value was -1.95%.
As for `Cc1cccc(N(CC(=O)NCCSc2ccccn2)S(=O)(=O)c2ccccc2)c1`, the “hERG current change (%, negative = inhibition) at 1uM” value is reported as 2.41%.
Under `Cc1cccc(N2CCN(S(C)(=O)=O)CC2)c1C` stands 17.1%.
Under `COc1ccc(OCCc2nnc(N)s2)cc1` stands 0.609%; under `CC(=O)c1cc2ccccc2oc1=O`, -2.36%.
Under `O=C(CCCNC(=O)c1ccc(Cl)cc1)Nc1ncccc1O` stands 14.1%.
